The values below come from the supplement of paper PMC10338343.

± gives the standard deviation. The full ranking holds about 6,600 sequences; the median of “pre-steady-state target cleavage rate” is about 0.07, and the highest 2% start at about 0.72. The list shows a part of the results, in another mix than the full data.
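Further: 1 nM active piRISC with 0.1 nM target library at 33 °C single turnover.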

The experiment relates to MIWI (PIWIL1) piRISC loaded with Kctd7 piRNA (30 nt). Nature of the experiment: pre-steady-state target cleavage rate (min^-1); MIWI and MILI are mouse PIWI proteins and EfPiwi is from a freshwater sponge; tags in brackets are library labels; higher = faster piRNA-guided slicing of the target. The settings on record: guide: Kctd7 piRNA 5'p-UGUUAAUCUCUCAGAGAAGGUGACAGUGAU; auxiliary factor: 500 nM mouse GTSF1. Put shortly: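 The pre-steady-state cleavage rate was derived from a burst-and-steady-state fit of Cleave-'n-Seq data. For these assays, 1 nM active affinity-purified piRISC loaded with a single synthetic guide was mixed with […] a transcribed, DNA-blocked target RNA library in HEPES–potassium acetate buffer at 33 °C, with or without 500 nM GTSF1 partner protein, for 0–8 or 0–960 min. Sequencing counts of uncleaved targets were normalised to depth and to weakly complementary targets, and k3 was capped at 0.0001 min^-1 after three trials were pooled.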
Turning to UUCACUGUCACCUUCUCUGAGACUUUAACA, the “pre-steady-state target cleavage rate” value came to 0.0804 ± 0.02.
Turning to UACACUGUCACCAAGUCUGAGAGAUUAACA, the “pre-steady-state target cleavage rate” value is 0.142 ± 0.018.
With UAGUCUGUCACCUUUUCUGAGAGAUUAACA the figure was 0.542 ± 0.029; with UAGUGACUCACCUUCUCUGACAGUUUAACA, 0.0576 ± 0.0089; with UAGUGACACACCUACUCUGAGAGAUUUACA, 0.0627 ± 0.012.
With UAGUGUGACACCUUCUCUGAGAGAUAUUGA the figure was 0.00676 ± 0.0045.
To UAGUGAGUCACCUUCUCUGAGUGAAUAACA belongs 0.0154 ± 0.0058; to UAGAGUGUCACCUUCUCUGACAGAUUAACA, 0.459 ± 0.029.
As for UAGUCUGUCACCUUCUCUGAGAGAUUAAUCA, the “pre-steady-state target cleavage rate” value was determined as 0.277 ± 0.039.
With UAGUGUGUCACCUUCUCAGAGAGUUUAACA the figure was 0.255 ± 0.064; with UAGUGAGUCACCUUCUUGAGAGAUUAACA, 0.0288 ± 0.0073.
To UAGUGACACACCUUCUCUGAGAGAUUAUACA belongs 0.246 ± 0.043; to UAGUGACAGUCCCUUCUCUGAGAGAUUAACA, 0.611 ± 0.046; to UAGUGACUCACGUUCUCUGAGAGAUUUACA, 0.0848 ± 0.016.
To UAGUGACUCACCAUCUCUGAGUGAUUAACA belongs 0.0118 ± 0.0023; to AUCACUGUCACCUUCUCUGUGAGUUUAACA, 0.176 ± 0.017; to UACACUGUCACCUUCUUUGAGAGAUUAACA, 0.553 ± 0.04.
Take UUCACUCUCACCUUCUCUGAGAGAUUAACA: the “pre-steady-state target cleavage rate” value worked out at 0.54 ± 0.028.
To UAGUGUGUCACCUUCUCUGAGAGUUAACA belongs 0.108 ± 0.032; to UUCACUGAGACCUUCUCUGAGAGAUUAUGA, 0.022 ± 0.0075; to UAGUGACAGUGGUUGUGUGAGAGAUUAACA, under 0.0001.
To UAGUGAGUCACGAUCUCUGAGAGAUUAUGA belongs 0.00927 ± 0.0037; to UAGUGUGUCACGAUCUCUGAGAGAUUAACA, 0.332 ± 0.022.
With UAGUGACAGUCCGUCUCUGAGAGAUUAACA the figure was 0.0126 ± 0.0033.
Turning to UAGUGACAGAGCUUCUCUGAGAGAUAAACA, the “pre-steady-state target cleavage rate” value came to 0.00756 ± 0.0026.
To UAGUCUGUCACCUUCUCUGAGAGACUUAACA belongs 0.196 ± 0.029; to UAGUGACACUCCUUCUCAGAGAGAUUAACA, 0.0209 ± 0.0051.
For UAGACUGUGACCUUCUCUGAGAGUUUAACA, the “pre-steady-state target cleavage rate” value came to 0.323 ± 0.043.
Consider UAGACUGUCACGUUCUCUGAGAGAAUAACA, for which the “pre-steady-state target cleavage rate” value was 0.202 ± 0.032.
With UAGUCUGUACCUUCUCUGAGAGAUUAACA the figure was 0.636 ± 0.038; with UACACUGUCACCUUCUCAGAGAGAUUAUGA, 0.0406 ± 0.014.
In the case of UACACUGACACCUUGUCUGAGAGAUUAACA, the “pre-steady-state target cleavage rate” value was determined as 0.141 ± 0.022.
With UAGUGAGUCACCUUCUCUGAGACGAUUAACA the figure was 0.0201 ± 0.0076; with UAGUGACUCACCUUCUCAGAGAGAUUAACA, 0.116 ± 0.013; with UAGUGACAGUGGAAGAGACUGAGAAUUACA, under 0.0001.
UAGUGUGUCACCUUCUCUGUGAGAUUAUGA: the “pre-steady-state target cleavage rate” value worked out at 0.0244 ± 0.0083.
With UAGUGAGUCACCUUCUCUGAGAGAUUGAACA the figure was 0.178 ± 0.018; with UACACUGUCACCUUCUCUGAGAGUUUUACA, 0.0952 ± 0.024; with AUCACUGUCACCUUGUCUGAGAGAUAUUGA, 0.42 ± 0.12.
For the sequence UAGUGUGUCACCUUCUCUGACAGAUUAACA, the “pre-steady-state target cleavage rate” value was 0.474 ± 0.036.
In the case of AUCACUGUCAGCCUUCUCUGAGAGAUUAACA, the “pre-steady-state target cleavage rate” value was 0.251 ± 0.019.
With UUCUCUGUCACCUUCUCUGACAGAUUAACA the figure was 0.254 ± 0.021.
Regarding UAGUCUGUCACCUUCUCUGAGAGUUUAAGA, the “pre-steady-state target cleavage rate” value came to 0.177 ± 0.044.
Turning to UAGUGAGACACCUUCUCUGAGUGAUUAACA, the “pre-steady-state target cleavage rate” value was determined as 0.0186 ± 0.0032.
Take AUCACCGUCACCUUCUCUGAGAGAUUAACA: the “pre-steady-state target cleavage rate” value was 0.67 ± 0.026.
Consider UAGUGACAGACCAUCUCUGAGAGAUAAACA, for which the “pre-steady-state target cleavage rate” value turned out to be 0.0072 ± 0.0016.
In the case of UAGUGUGUCACCUUCAGUGAGAGAUUAUGA, the “pre-steady-state target cleavage rate” value worked out at 0.00476 ± 0.0034.
For UAGACUGUCUCCUUCUCUGAGAGAUUUUGA, the “pre-steady-state target cleavage rate” value is 0.00511 ± 0.0036.
Regarding UAGUGUGUCACCUUCUGAGAGAGAUUAAGA, the “pre-steady-state target cleavage rate” value amounted to 0.0352 ± 0.013.
To UAGUGAGUGUGCUUCUCUGAGAGAUUAAGA belongs 0.0188 ± 0.0046; to UACACUGUGUCCUUCUCUGAGAGAUUUUGA, 0.0136 ± 0.0047; to UAGUGUGUCACCUUCUUUGAGAGAUUAACA, 0.435 ± 0.025.
To UAGUGACACACCUUCUCUGAGUGAUAAACA belongs 0.0152 ± 0.0044.
With AUCACUGUCACCAUCUCUGUGAGAUUAACA the figure was 0.259 ± 0.021; with UAGUGACACUGCUUCUCUGAGAGAUUAACA, 0.153 ± 0.016; with UAGUGACAGUGCUUUCUCUGAGAGAUUAACA, 0.354 ± 0.033.
In the case of UAGUCUGUCUCCUUCUCUGAGAGAUUAAGA, the “pre-steady-state target cleavage rate” value was 0.0826 ± 0.015.
To UAGUGACACACCUUCUCUGAGUGAAUAACA belongs 0.00377 ± 0.0036; to AUCACUGUCACCUUCUCUCAGAGAUUUUGA, 0.0207 ± 0.0088; to UAGUCUGUCACCUUCUCUGCGAGAUUAACA, 0.385 ± 0.03.
As for UAGUGAGUCUCCUUGUCUGAGAGAUUAACA, the “pre-steady-state target cleavage rate” value worked out at 0.0618 ± 0.009.
UAGUGACACACCAUCUCUGAGAGAUUUACA: the “pre-steady-state target cleavage rate” value came to 0.0811 ± 0.012.
As to AUCACACACACCUUCUCUGAGAGAUUAACA, the “pre-steady-state target cleavage rate” value came to 0.563 ± 0.032.
UAGUCUGUCACCUUCACUGAGAGAUUAACA: the “pre-steady-state target cleavage rate” value came to 0.39 ± 0.02.
With UAGUGAGUGACCUUCUCUGAGAGAUUAACA the figure was 0.504 ± 0.035.
To UAGUGUGUCAGCUUCUCUGAGAGAUUAUCA belongs 0.244 ± 0.029; to AUCACUGUCACCUUCUCUGAGAGAUUAUACA, 0.309 ± 0.041; to UAGUGACUCACCUUCUCUGUGAGAUUAUCA, 0.0112 ± 0.0057.
For the sequence UUGUCUGUCACCUUCUCUGAGAGAUUAAGA, the “pre-steady-state target cleavage rate” value is 0.0827 ± 0.014.
For the sequence UUCACUGACACCUUCUCUGAGAGAUUAAGA, the “pre-steady-state target cleavage rate” value was found to be 0.162 ± 0.035.
Take UAGUGACUCACCAUCUCAGAGAGAUUAACA: the “pre-steady-state target cleavage rate” value was 0.0215 ± 0.0043.
With UAGUCUGUGACCUUCUCAGAGAGAUUAACA the figure was 0.239 ± 0.016.
With AUCACUGUCACCUUCUCUGUGAGAUUUACA, the “pre-steady-state target cleavage rate” value is 0.235 ± 0.029.
